Article PMC5419422 (Science immunology, 2017)

How the values were obtained:
[1] = target: T1, recombinant human HIS-tagged CFP (human, UniProt P27918 28-469); assay: SPR
T1 sequence: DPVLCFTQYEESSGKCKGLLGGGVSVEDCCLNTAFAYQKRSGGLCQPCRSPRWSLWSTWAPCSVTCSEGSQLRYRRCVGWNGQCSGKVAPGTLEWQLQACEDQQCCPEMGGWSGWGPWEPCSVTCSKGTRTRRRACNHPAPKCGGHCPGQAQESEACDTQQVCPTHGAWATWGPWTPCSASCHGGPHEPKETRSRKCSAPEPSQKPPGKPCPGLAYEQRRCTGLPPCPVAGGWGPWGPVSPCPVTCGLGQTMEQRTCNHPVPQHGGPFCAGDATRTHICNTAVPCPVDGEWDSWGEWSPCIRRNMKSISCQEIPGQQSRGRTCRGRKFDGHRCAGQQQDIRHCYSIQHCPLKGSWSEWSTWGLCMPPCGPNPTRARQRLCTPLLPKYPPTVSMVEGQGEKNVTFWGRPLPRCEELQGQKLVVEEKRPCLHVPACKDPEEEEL

[2] = target: T2, CFP purified from human serum (human, UniProt P27918 28-469); assay: SPR
T2 sequence: T1 sequence

B1: human NKp46-Fc (Fc fusion)
chain: QQQTLPKPFIWAEPHFMVPKEKQVTICCQGNYGAVEYQLHFEGSLFAVDRPKPPERINKVQFYIPDMNSRMAGQYSCIYRVGELWSEPSNLLDLVVTEMYDTPTLSVHPGPEVISGEKVTFYCRLDTATSMFLLLKEGRSSHVQRGYGKVQAEFPLGPVTTAHRGTYRCFGSYNNHAWSFPSEPVKLLVTGDIENTSLAPEDPTFPADTWGTYLLTTETGLQKDHALWDHTAQN
Does B1 bind [1]?
Result: binds

Does B1 bind [2]?
Result: binds
